Assay results published in PMC9911399, “Two distinct binding modes provide the RNA-binding protein RbFox with extraordinary sequence specificity”.
Where a chain is given by its changes, count along the chain named. The list shows a part of the results.

T1: RBFOX1 RRM RbFoxmut (Fox-RRM*) (Homo sapiens, UniProt Q9NWB1 109-208, R118D;E147R;N151S;E152T)
T1 sequence: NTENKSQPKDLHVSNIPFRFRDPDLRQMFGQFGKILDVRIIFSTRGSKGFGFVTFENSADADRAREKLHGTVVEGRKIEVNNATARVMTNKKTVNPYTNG

B1: GUCUCGG (DNA:RNA)
RNA: GGGAGACCGGAAUUCAGAUUGUCCGUCUCGGUUAAAUCCCGUCGUAGCCACCA
DNA 1: CAATCTGAATTCCGGTCTCCC
DNA 2: TGGTGGCTACGACGGGATT
B2: CUUCGCC (DNA:RNA)
RNA: B1 RNA with G25C, C27U, U28C, C29G, G30C, G31C
DNA 1: CAATCTGAATTCCGGTCTCCC
DNA 2: TGGTGGCTACGACGGGATT
B3: CGCCGUA (DNA:RNA)
RNA: B1 RNA with G25C, U26G, U28C, C29G, G30U, G31A
DNA 1: CAATCTGAATTCCGGTCTCCC
DNA 2: TGGTGGCTACGACGGGATT
B4: CUAGGCG (DNA:RNA)
RNA: B1 RNA with G25C, C27A, U28G, C29G, G30C
DNA 1: CAATCTGAATTCCGGTCTCCC
DNA 2: TGGTGGCTACGACGGGATT
B5: CGUUUAG (DNA:RNA)
RNA: B1 RNA with G25C, U26G, C27U, C29U, G30A
DNA 1: CAATCTGAATTCCGGTCTCCC
DNA 2: TGGTGGCTACGACGGGATT
B6: GUUGUCC (DNA:RNA)
RNA: B1 RNA with C27U, U28G, C29U, G30C, G31C
DNA 1: CAATCTGAATTCCGGTCTCCC
DNA 2: TGGTGGCTACGACGGGATT
B7: CCCACCA (DNA:RNA)
RNA: B1 RNA with G25C, U26C, U28A, G30C, G31A
DNA 1: CAATCTGAATTCCGGTCTCCC
DNA 2: TGGTGGCTACGACGGGATT
B8: AAUGCGU (DNA:RNA)
RNA: B1 RNA with G25A, U26A, C27U, U28G, G31U
DNA 1: CAATCTGAATTCCGGTCTCCC
DNA 2: TGGTGGCTACGACGGGATT
B9: GGAGGGG (DNA:RNA)
RNA: B1 RNA with U26G, C27A, U28G, C29G
DNA 1: CAATCTGAATTCCGGTCTCCC
DNA 2: TGGTGGCTACGACGGGATT
B10: GUGACCU (DNA:RNA)
RNA: B1 RNA with C27G, U28A, G30C, G31U
DNA 1: CAATCTGAATTCCGGTCTCCC
DNA 2: TGGTGGCTACGACGGGATT
B11: GGCCUAG (DNA:RNA)
RNA: B1 RNA with U26G, U28C, C29U, G30A
DNA 1: CAATCTGAATTCCGGTCTCCC
DNA 2: TGGTGGCTACGACGGGATT
B12: CGUGGUG (DNA:RNA)
RNA: B1 RNA with G25C, U26G, C27U, U28G, C29G, G30U
DNA 1: CAATCTGAATTCCGGTCTCCC
DNA 2: TGGTGGCTACGACGGGATT
B13: UUGAAGU (DNA:RNA)
RNA: B1 RNA with G25U, C27G, U28A, C29A, G31U
DNA 1: CAATCTGAATTCCGGTCTCCC
DNA 2: TGGTGGCTACGACGGGATT
B14: AAACCCA (DNA:RNA)
RNA: B1 RNA with G25A, U26A, C27A, U28C, G30C, G31A
DNA 1: CAATCTGAATTCCGGTCTCCC
DNA 2: TGGTGGCTACGACGGGATT
B15: CGACAUG (DNA:RNA)
RNA: B1 RNA with G25C, U26G, C27A, U28C, C29A, G30U
DNA 1: CAATCTGAATTCCGGTCTCCC
DNA 2: TGGTGGCTACGACGGGATT
B16: AAGAACG (DNA:RNA)
RNA: B1 RNA with G25A, U26A, C27G, U28A, C29A, G30C
DNA 1: CAATCTGAATTCCGGTCTCCC
DNA 2: TGGTGGCTACGACGGGATT
B17: AGAGGCA (DNA:RNA)
RNA: GGGAGACCGGAAUUCAGAUUGUCCAGAGGCAUUAAAUCCCGUCGUAGCCACCA
DNA 1: CAATCTGAATTCCGGTCTCCC
DNA 2: TGGTGGCTACGACGGGATT
B18: AGUGGUA (DNA:RNA)
RNA: B17 RNA with A27U, C30U
DNA 1: CAATCTGAATTCCGGTCTCCC
DNA 2: TGGTGGCTACGACGGGATT
B19: CUAUCUG (DNA:RNA)
RNA: B1 RNA with G25C, C27A, G30U
DNA 1: CAATCTGAATTCCGGTCTCCC
DNA 2: TGGTGGCTACGACGGGATT
B20: CACAGAA (DNA:RNA)
RNA: B17 RNA with A25C, G26A, A27C, G28A, C30A
DNA 1: CAATCTGAATTCCGGTCTCCC
DNA 2: TGGTGGCTACGACGGGATT
B21: UCGGAUU (DNA:RNA)
RNA: B17 RNA with A25U, G26C, A27G, G29A, C30U, A31U
DNA 1: CAATCTGAATTCCGGTCTCCC
DNA 2: TGGTGGCTACGACGGGATT
B22: AAAUGAA (DNA:RNA)
RNA: B17 RNA with G26A, G28U, C30A
DNA 1: CAATCTGAATTCCGGTCTCCC
DNA 2: TGGTGGCTACGACGGGATT
B23: GGAGUGA (DNA:RNA)
RNA: B17 RNA with A25G, G29U, C30G
DNA 1: CAATCTGAATTCCGGTCTCCC
DNA 2: TGGTGGCTACGACGGGATT
B24: UAGGAAA (DNA:RNA)
RNA: B17 RNA with A25U, G26A, A27G, G29A, C30A
DNA 1: CAATCTGAATTCCGGTCTCCC
DNA 2: TGGTGGCTACGACGGGATT
B25: AAUAAAG (DNA:RNA)
RNA: B17 RNA with G26A, A27U, G28A, G29A, C30A, A31G
DNA 1: CAATCTGAATTCCGGTCTCCC
DNA 2: TGGTGGCTACGACGGGATT
B26: GAUGUGC (DNA:RNA)
RNA: B1 RNA with U26A, C27U, U28G, C29U, G31C
DNA 1: CAATCTGAATTCCGGTCTCCC
DNA 2: TGGTGGCTACGACGGGATT
B27: AUAGCUA (DNA:RNA)
RNA: B17 RNA with G26U, G29C, C30U
DNA 1: CAATCTGAATTCCGGTCTCCC
DNA 2: TGGTGGCTACGACGGGATT
B28: GCUUGUU (DNA:RNA)
RNA: B1 RNA with U26C, C27U, C29G, G30U, G31U
DNA 1: CAATCTGAATTCCGGTCTCCC
DNA 2: TGGTGGCTACGACGGGATT
B29: CAAGCCU (DNA:RNA)
RNA: B17 RNA with A25C, G26A, G29C, A31U
DNA 1: CAATCTGAATTCCGGTCTCCC
DNA 2: TGGTGGCTACGACGGGATT
B30: ACAAGUC (DNA:RNA)
RNA: B17 RNA with G26C, G28A, C30U, A31C
DNA 1: CAATCTGAATTCCGGTCTCCC
DNA 2: TGGTGGCTACGACGGGATT
B31: CAUACAG (DNA:RNA)
RNA: B1 RNA with G25C, U26A, C27U, U28A, G30A
DNA 1: CAATCTGAATTCCGGTCTCCC
DNA 2: TGGTGGCTACGACGGGATT

molecular target: T1, RBFOX1 RRM RbFoxmut (Fox-RRM*); experiment: EMSA; HiTS-Eq, 1 nM pool, 10 min; buffer printed only for the single-RNA assays: 10 mM Tris pH 7.5, 150 mM NaCl, 3.4 mM EDTA, 0.001% NP-40, 30 C; conditions: tags: His6 N-terminal (pET28a); label: 5' 32P
Outline: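 Purified RbFox RRM, wild type or mutant, was incubated for 10 min in 50 µL with 1 nM of a 5′-radiolabelled RNA pool carrying 7 randomized nucleotides, whose flanks were annealed to DNA oligonucleotides, over a series of increasing protein concentrations. Unbound RNA was resolved on 8% native PAGE, cut out, reverse-transcribed, barcoded by PCR and sequenced on an Illumina HiSeq 2500. Relative association constants were derived from changes in read counts for each RNA species versus the control reaction and normalised to the cognate motif.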

In order of falling binding signal:
1. B28  0.194 KA relative to UGCAUGU
2. B18  0.186 KA relative to UGCAUGU
3. B12  0.18 KA relative to UGCAUGU
4. B16  0.166 KA relative to UGCAUGU
5. B2  0.147 KA relative to UGCAUGU
6. B5  0.142 KA relative to UGCAUGU
7. B26  0.138 KA relative to UGCAUGU
8. B3  0.126 KA relative to UGCAUGU
9. B23  0.126 KA relative to UGCAUGU
10. B27  0.119 KA relative to UGCAUGU
11. B8  0.115 KA relative to UGCAUGU
12. B4  0.113 KA relative to UGCAUGU
13. B13  0.112 KA relative to UGCAUGU
14. B20  0.11 KA relative to UGCAUGU
15. B29  0.102 KA relative to UGCAUGU
16. B31  0.0983 KA relative to UGCAUGU
17. B6  0.0969 KA relative to UGCAUGU
18. B1  0.0951 KA relative to UGCAUGU
19. B17  0.0893 KA relative to UGCAUGU
20. B22  0.0872 KA relative to UGCAUGU
21. B10  0.087 KA relative to UGCAUGU
22. B25  0.0862 KA relative to UGCAUGU
23. B11  0.0853 KA relative to UGCAUGU
24. B19  0.0847 KA relative to UGCAUGU
25. B14  0.0806 KA relative to UGCAUGU
26. B15  0.0753 KA relative to UGCAUGU
27. B21  0.0694 KA relative to UGCAUGU
28. B24  0.0685 KA relative to UGCAUGU
29. B30  0.0675 KA relative to UGCAUGU
30. B9  0.0569 KA relative to UGCAUGU
31. B7  0.0516 KA relative to UGCAUGU
